The record followed here is PubChem BioAssay AID602332 (National Center for Advancing Translational Sciences (NCATS), 2012).

Several values for one entry are separate records, joined by “and”; a condition that tells them apart may be missing. Equal values may be shown once. In all, about 420,000 compounds went through this assay and about 75 (0.02%) were called active. Calls follow the shape of the dose curve; as a rule, active = well fitted activation curve with a large enough effect; inconclusive = small, poorly fitted or top-dose-only effect; inactive = no such curve, though single readings can be large or run the other way. Only a part is listed here, and it is no random draw. The source holds several records for some structures; these can differ, active in one and inactive in another.
Potency is read from the fitted curve at half-maximal effect.

This assay can be described thus: qHTS for Inducers of the Endoplasmic Reticulum Stress Response (ERSR) in Human Glioma: qHTS. Also: nearly all actives have a fitted effect of over 35% in size. As to activation: % of control where 0% means no effect. The conditions noted are these: U87-MG GRP78 promoter luciferase reporter, 16 h; activation: active compounds read high. The gist of the method: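 ERSR induction read as luciferase luminescence (Bright-Glo, 10 min at room temperature) in stably transfected human U87-MG glioma cells exposed to compounds for 16 h, using GRP78 as sensor.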
On the technique in general: qHTS replaces the single test concentration by a dilution series.
On to `Cc1ccc(C(=O)CSc2nnnn2C(C)C)c(C)c1`, for which the activation was inactive: -17.2%.

As for `CN(C)CCCN(C(=O)c1cc(-c2cccs2)nc2ccccc12)c1nc2ccc(F)cc2s1`, the activation was inactive: -17.4%.

Consider `O=C(COc1ccc(CO)cc1Cl)Nc1ccc(F)cc1`, for which the activation was inactive: -13.4%. Still for that read-out and setting: next, `CCOc1ccc(C(=O)Nc2nnc(SCC(=O)NCC3CCCO3)s2)cc1` (stereo not drawn): inactive: -15.6%.

With `COc1ccc(Cl)cc1C(=O)Nc1nc2ccccc2[nH]1`, the activation is inactive: -16.1%. Take `NS(=O)(=O)c1ccc(N2N=C(c3ccc(Br)cc3)CC2c2ccc(F)cc2)cc1` (stereo not drawn): the activation was inactive: -17.4%. On the same count and under the same terms, next, `O=C(O)c1ccc2nc(-c3ccccc3)sc2c1`: inactive: -15%; `COc1ccc(Br)cc1[C@H]1[C@H]2C=CC[C@@H](C)[C@@H]2C(=O)N1Cc1ccccc1`: inactive: -1.9%. The same measure, in the same setting: with `CCOc1ccc2nc3sc(C(=O)N4CCOCC4)c(N)c3cc2c1` the figure was inactive: -11.3%; with `CC(NC(=O)/C(C#N)=C/c1ccc(Cl)c([N+](=O)[O-])c1)c1ccccc1` (stereo not drawn), inactive: -14%; with `C=CC[C@@H](CC(=O)OC(C)(C)C)C(=O)OC[C@@H]1CCCN1C(=O)[C@@H](CC=C)CC(=O)N[C@@H](CO)Cc1ccccc1`, inactive: -1.44%.

Take `C/C(N)=C(/C#N)C(=O)COC(=O)c1cc(C)n(-c2ccc(F)cc2)c1C`: the activation is inactive: 4.04%. Take `Nc1ccc2c(c1)C(=O)C(=O)c1ccccc1-2`: the activation was inactive: -15%. Consider `Cc1ccc(NC(=O)C2CCCN2S(=O)(=O)c2cccc3cccnc23)c(C)c1` (stereo not drawn), for which the activation is inactive: -2.21%.

In the case of `CCn1ccc(C(=O)Nc2ccc3c(c2)CCC3)n1`, the activation was inactive: -12%. On the same count and under the same terms, with `Cc1nc([N+](=O)[O-])c(Br)n1CC(=O)c1ccc(Br)cc1` the figure was inactive: -16.2%; with `O=C(NC1CCCCCC1)c1cccc(N2CCCC2=O)c1`, inactive: -12.6%. Take `O=C(CSc1ccccn1)Nc1nonc1[N+](=O)[O-]`: the activation is inactive: -14.8%.

On to `O=C(Nc1cc(N2CCOCC2)ncn1)c1ccccc1`, for which the Potency was active: 35.5 µM. Turning to `CCOc1ccc(N2C(=O)CC(Sc3nnnn3-c3ccccc3)C2=O)cc1` (stereo not drawn), the activation is inactive: -16.4%. Take `O=C(CN1C(=O)c2ccccc2S1(=O)=O)N1CCc2ccccc21`: the activation was inactive: -14.7%. `O=S(=O)(Nc1cccc2cccnc12)c1ccccc1`: the activation is inactive: 11.5%.

On to `COc1cc(NC(=O)Cn2ncc(Cl)c(Cl)c2=O)c(C)cc1[N+](=O)[O-]`, for which the activation was inactive: -14.2%. Regarding `CN1CCN2c3ccccc3Cc3ccccc3C2C1` (stereo not drawn), the Potency is active: 35.5 µM. In the case of `O=C(Nc1nc2cc3c(cc2s1)OCCO3)c1cccs1`, the activation was inactive: -16.6%. On the same count and under the same terms, next, `CC1(COc2ccc(CC3SC(=O)NC3=O)cc2)CCCCC1` (stereo not drawn): inactive: 3.79% and inactive: -0.164% and inactive: 5.82%; `O=C(Nc1cnc2ccccc2c1)N1CCCCC1`: inactive: -13.1%; `CCCCOC(=O)c1cc2c(cn1)[nH]c1ccccc12`: inactive: 3.2% and inactive: 3.53%.

For `CC1CCc2nc(NC(=O)c3ccco3)sc2C1` (stereo not drawn), the activation was inactive: -18.2%. As to `O=C(/C=C/Sc1ncn[nH]1)c1ccc(Cl)cc1`, the activation is inactive: -15.7%. Still for that read-out and setting: next, `COC(=O)COc1cc(Br)c(/C=C2/SC(=O)N(CC(=O)N3CCCC3)C2=O)cc1OC`: inactive: -14.9%. With `COc1cc2nc(N3CCCN(C)CC3)nc(NC3CCN(Cc4ccccc4)CC3)c2cc1OC`, the activation is inactive: -9.4% and inactive: -11.7%. Regarding `CC(C)(C)OC(=O)N[C@@H](Cc1ccccc1)c1nnc(S(=O)(=O)Cc2cccc(F)c2)o1`, the activation is inactive: 2.59%. The same measure, in the same setting: next, `CCCCCCCCCCCCCCCCCCNC(=O)OCC(COP(=O)([O-])OCC[n+]1ccsc1)OC` (stereo not drawn): inactive: -14.2%; `CSc1ccc(/C=C(\NC(=O)c2ccco2)C(=O)N2CCCCC2)cc1`: inactive: -3.61%.

Turning to `OC(COc1ccc2ccccc2c1)CN1CCOCC1` (stereo not drawn), the activation was inactive: 0.822%. On the same count and under the same terms, next, `Cc1ccc(-c2onc3ccc(C(=O)O)cc23)cc1`: inactive: -14.3%; `CC1=NOC(=O)/C1=C\c1ccc(-c2ccccc2Br)o1`: inactive: -15.2%. For `Cc1cc(C)cc(N2C(=O)C3CC=CCC3C2=O)c1` (stereo not drawn), the activation is inactive: -12.9%. As to `COC(=O)C(C)Oc1cc(OC(C)C(=O)OC)c2c(-c3ccccc3)cc(=O)oc2c1` (stereo not drawn), the Potency was active: 31.6 µM. With `Cc1ccc(-n2c(C)cc(C(=O)CSc3nnc4ccccn34)c2C)cc1`, the activation was inactive: -12.3%. On to `CCOc1cc(CNCCO)cc(Br)c1OCc1ccccc1Cl`, for which the activation is inactive: -18.6%. Take `CCN1CCCC1CNC(=O)c1cc(S(N)(=O)=O)ccc1OC` (stereo not drawn): the activation was inactive: -3.41% [middle of 5 runs]. On the same count and under the same terms, with `Cc1cc(C(C)(C)C)cc(C)c1Cn1c2[n+](c3ccc(C(F)(F)F)cc31)CCCCC2` the figure was inactive: -14.8%; with `COc1ccc(S(=O)(=O)n2nc(OC(=O)c3ccc(C)cc3)cc2N)cc1`, inactive: -14.6%. In the case of `O=C1C(Nc2ccccc2)=CC(=O)c2ncccc21`, the activation was inactive: -12% and inactive: -11.6%. Same read-out and setting: with `Cc1ccc(N(NC(=O)C(O)(c2ccccc2)c2ccccc2)C(=O)CCl)cc1` the figure was inactive: -14.2%; with `CC(C)(C)C(=O)Cn1ncc(Br)c(Br)c1=O`, inactive: -14.5%. The same measure, in the same setting: with `O=C(NCc1ccc2c(c1)OCO2)c1nc(S(=O)(=O)Cc2ccccc2)ncc1Cl` the figure was inactive: -18.6%; with `CCOC(=O)C1CCN(c2ncnc3c2cnn3-c2ccc(OC)cc2)CC1`, inactive: -13.8%. As for `O=C(Nc1nc2ccccc2[nH]1)c1ccccc1OC(F)F`, the activation is inactive: -12.5%. Still for that read-out and setting: next, `Cc1ccc(S(=O)(=O)N2CCC(=O)N([C@H](COCc3cccc(C(F)(F)F)c3)Cc3ccccc3)CC2)cc1`: inactive: -3.25%.

With `Cc1ccc(NCC(=O)N=Nc2c(O)[nH]c3ccc([N+](=O)[O-])cc23)cc1`, the Potency was active: 39.8 µM.

Turning to `C#C[C@]1(O)CC[C@H]2[C@@H]3CCC4=Cc5oncc5C[C@]4(C)[C@H]3CC[C@@]21C`, the activation was inactive: -3.69% and inactive: -2.31%.

`O=C(Nc1ccc([N+](=O)[O-])cc1Cl)c1cc(Cl)ccc1O`: the activation was inactive: -8.12% [middle of 5 runs]. Still for that read-out and setting: next, `Cc1noc(C)c1S(=O)(=O)N(C)C[C@@H]1OCc2cnnn2CCCC(=O)N([C@@H](C)CO)C[C@H]1C`: inactive: -2.59%; `CC(C)(C)OC(=O)C[C@H]1C/C=C\C[C@@H](CC(=O)N[C@@H](CO)Cc2ccccc2)C(=O)NC[C@H](c2ccccc2)OC1=O`: inactive: 4.03%; `CCCN1C=CC(=C2C(=O)c3ccccc3C2=O)C=C1`: inactive: -14.7%.

`CC(C)(C)OC(=O)NCCc1nnc(S(=O)(=O)Cc2ccc(Cl)cc2Cl)o1`: the activation was inactive: -16.9%. Consider `C[C@@H]1OC2C3=C(C(=O)[C@H]4O[C@@H]4[C@H]3O)[C@@H]1[C@H]1[C@H](C)OC=C3[C@H](O)[C@H]4O[C@H]4/C(=N\OCc4ccccc4)[C@@]321`, for which the activation is inactive: 17.9%. Still for that read-out and setting: with `Cc1occc1C(=O)N/N=C/C=C\c1ccccc1[N+](=O)[O-]` the figure was inactive: 5.59%; with `COc1ccc(-c2cc3nc(CCl)[nH]c(=O)c3s2)cc1`, inactive: -14.2%.

In the case of `O=C1C(Cl)=C(NCCN2CCOCC2)C(=O)c2ncccc21`, the activation is inactive: -12.1%. On the same count and under the same terms, with `CCN1CCC[C@H]1CNC(=O)c1cc(S(N)(=O)=O)ccc1OC` the figure was inactive: -2.86% [middle of 5 runs]. The same measure, in the same setting: next, `CCc1ccccc1N(CC)C(=O)C1CCN(c2ncnc3c2nc2n3CCCCC2)CC1`: inactive: -3.34%. For `COC1=C(OC)C(=O)c2ccccc2C1=O`, the activation was inactive: -14%. Consider `COc1ccc(/C=C\C(=O)Nc2ccccc2C(=O)O)cc1OC`, for which the activation was inactive: -11.5%. Still for that read-out and setting: next, `O=C(NN1C(=O)/C(=C/c2ccc(O)c([N+](=O)[O-])c2)SC1=S)c1ccccc1Cl`: inactive: -3.19%; `Nc1cccc(Nc2nc(OC(C(F)(F)F)C(F)(F)F)nc(OC(C(F)(F)F)C(F)(F)F)n2)c1`: inactive: -18.9%; `Cc1cc(CC(C)CC(C)(C)C)n(O)c(=O)c1` (stereo not drawn): inactive: -5.4%.

On to `CCOC(=O)COc1ccc(Br)cc1/C=C\c1[nH]c(=O)[nH]c(=O)c1[N+](=O)[O-]`, for which the activation was inactive: -13.6%. Turning to `CC[C@H](C)[C@H]1O[C@]2(CC[C@@H]1C)C[C@@H]1C[C@@H](CC=C(C)[C@@H](O[C@H]3C[C@H](OC)[C@@H](O[C@H]4C[C@H](OC)[C@@H](O)[C@H](C)O4)[C@H](C)O3)[C@@H](C)C=CC=C3CO[C@@H]4[C@H](O)C(C)=C[C@@H](C(=O)O1)[C@]34O)O2`, the activation was inactive: -0.821%. Still for that read-out and setting: with `CCOc1cc(/C=N/O)cc(Br)c1OCc1ccc(Cl)cc1` the figure was inactive: -18.7%; with `Cc1ccc(-c2csc3ncnc(Sc4nnc(CN5CCCCCC5=O)o4)c23)cc1`, inactive: -15.5%.

For the compound `COc1ccc(-c2coc3cc(O)cc(O)c3c2=O)cc1`, the activation is inactive: 5.49% and inactive: -1.29%. Same read-out and setting: with `Cc1cc(NC(=O)CCS(=O)(=O)c2nc(-c3ccccc3)cc(C(F)(F)F)n2)no1` the figure was inactive: -15.1%.

Consider `Cc1ccc(C2CC(c3cccs3)=NN2C(=O)CCl)cc1` (stereo not drawn), for which the activation is inactive: -15.7%. In the case of `Cc1nonc1C(=O)N/N=C/c1ccc(O)c(O)c1`, the Potency was active: 35.5 µM.

Turning to `C#C[C@]1(O)CC[C@H]2[C@H]3CCC4=Cc5oncc5C[C@]4(C)[C@@H]3CC[C@]21C`, the activation was inactive: -6.35%. The same measure, in the same setting: next, `c1ccc(-c2noc(-c3ccco3)n2)nc1`: inactive: -13.6%; `Cc1ccc(F)c([C@H]2[C@H]3C=CC[C@@H](C)[C@@H]3C(=O)N2Cc2ccccc2)c1`: inactive: -1.57%. On to `COc1ccccc1NC(=O)Nn1cnnc1`, for which the activation is inactive: -18.7%. On the same count and under the same terms, with `CCOc1ccc(NC(=O)CCC(=O)N2CCSc3ccccc32)cc1` the figure was inactive: 0.197%.
